# Reference: article PMC12820563
# Some of the results follow. The list includes weakly bound sequences.
# Molecular target: T1, MBP-FoxP3dN (UniProt Q99JB6)
# T1 sequence: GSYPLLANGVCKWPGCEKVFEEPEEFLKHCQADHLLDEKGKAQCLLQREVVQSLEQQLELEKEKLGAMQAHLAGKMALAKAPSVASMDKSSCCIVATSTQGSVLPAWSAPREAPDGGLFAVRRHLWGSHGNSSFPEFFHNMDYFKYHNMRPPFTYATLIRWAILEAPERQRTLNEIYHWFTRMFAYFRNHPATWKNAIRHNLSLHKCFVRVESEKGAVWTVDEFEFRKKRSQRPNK
# Assay: PD-seq (MBP pull-down with sequencing)
# Details: 20 mM Tris-HCl pH 7.5, 100 mM NaCl, 1.5 mM MgCl2, 0.4 uM protein, 0.1 uM dsDNA library, 30 min, room temperature, amylose pull-down; high values mean tight binding; double strand, one strand shown
row,Sequence,binding signal (RPM ratio (pull-down/input))
1,GATGATTGTTCTCCCAGCTGATGAATTGGTGAGATCGAGTAAACAAATTTTCCTAATCTTTCTGTTCAAGCGCCATCTAC,0.341
2,GATGATTGTTCTCCCAGCTGATGAATTCTCATATTCGAGTAAACAAATTTTCCTAATCTTTCTGTTCAAGCGCCATCTAC,0.434
3,GATGATTGTTCTCCCAGCTGATGAATTGTGTACGTCGAGTAAACAAATTTTCCTAATCTTTCTGTTCAAGCGCCATCTAC,3.64
4,GATGATTGTTCTCCCAGCTGATGAATTTTCGCTATCGAGTAAACAAATTTTCCTAATCTTTCTGTTCAAGCGCCATCTAC,0.627
5,GATGATTGTTCTCCCAGCTGATGAATTTATATTATCGAGTAAACAAATTTTCCTAATCTTTCTGTTCAAGCGCCATCTAC,1.6
6,GATGATTGTTCTCCCAGCTGATGAATTATATTACTCGAGTAAACAAATTTTCCTAATCTTTCTGTTCAAGCGCCATCTAC,0.924
7,GATGATTGTTCTCCCAGCTGATGAATTTCGCCCATCGAGTAAACAAATTTTCCTAATCTTTCTGTTCAAGCGCCATCTAC,1.56
8,GATGATTGTTCTCCCAGCTGATGAATTTTCGGCGTCGAGTAAACAAATTTTCCTAATCTTTCTGTTCAAGCGCCATCTAC,0.441
9,GATGATTGTTCTCCCAGCTGATGAATTTGGCAGCTCGAGTAAACAAATTTTCCTAATCTTTCTGTTCAAGCGCCATCTAC,1.53
10,GATGATTGTTCTCCCAGCTGATGAATTCGAATGTTCGAGTAAACAAATTTTCCTAATCTTTCTGTTCAAGCGCCATCTAC,0.896
11,GATGATTGTTCTCCCAGCTGATGAATTGATCGACTCGAGTAAACAAATTTTCCTAATCTTTCTGTTCAAGCGCCATCTAC,0.33
12,GATGATTGTTCTCCCAGCTGATGAATTATCTACGTCGAGTAAACAAATTTTCCTAATCTTTCTGTTCAAGCGCCATCTAC,0.345
13,GATGATTGTTCTCCCAGCTGATGAATTCGCTAACTCGAGTAAACAAATTTTCCTAATCTTTCTGTTCAAGCGCCATCTAC,0.31
14,GATGATTGTTCTCCCAGCTGATGAATTTATACTATCGAGTAAACAAATTTTCCTAATCTTTCTGTTCAAGCGCCATCTAC,1.16
15,GATGATTGTTCTCCCAGCTGATGAATTTTAGAGGTCGAGTAAACAAATTTTCCTAATCTTTCTGTTCAAGCGCCATCTAC,0.246
16,GATGATTGTTCTCCCAGCTGATGAATTAACTCGGTCGAGTAAACAAATTTTCCTAATCTTTCTGTTCAAGCGCCATCTAC,0.233
17,GATGATTGTTCTCCCAGCTGATGAATTTGAAATTTCGAGTAAACAAATTTTCCTAATCTTTCTGTTCAAGCGCCATCTAC,0.33
18,GATGATTGTTCTCCCAGCTGATGAATTGTTTTACTCGAGTAAACAAATTTTCCTAATCTTTCTGTTCAAGCGCCATCTAC,1.55
19,GATGATTGTTCTCCCAGCTGATGAATTGTCACGGTCGAGTAAACAAATTTTCCTAATCTTTCTGTTCAAGCGCCATCTAC,0.334
20,GATGATTGTTCTCCCAGCTGATGAATTTAGAGACTCGAGTAAACAAATTTTCCTAATCTTTCTGTTCAAGCGCCATCTAC,0.585
21,GATGATTGTTCTCCCAGCTGATGAATTGCTGCTCTCGAGTAAACAAATTTTCCTAATCTTTCTGTTCAAGCGCCATCTAC,0.662

row,Sequence,binding signal (RPM ratio (pull-down/input))
1,GATGATTGTTCTCCCAGCTGATGAATTAAAAATGTCGAGTAAACAAATTTTCCTAATCTTTCTGTTCAAGCGCCATCTAC,0.248
2,GATGATTGTTCTCCCAGCTGATGAATTAGGCTGGTCGAGTAAACAAATTTTCCTAATCTTTCTGTTCAAGCGCCATCTAC,0.593
3,GATGATTGTTCTCCCAGCTGATGAATTTTGTGCCTCGAGTAAACAAATTTTCCTAATCTTTCTGTTCAAGCGCCATCTAC,1.84
4,GATGATTGTTCTCCCAGCTGATGAATTTAGCTGATCGAGTAAACAAATTTTCCTAATCTTTCTGTTCAAGCGCCATCTAC,0.744
5,GATGATTGTTCTCCCAGCTGATGAATTAGCGCCCTCGAGTAAACAAATTTTCCTAATCTTTCTGTTCAAGCGCCATCTAC,0.739
6,GATGATTGTTCTCCCAGCTGATGAATTGAGGAGCTCGAGTAAACAAATTTTCCTAATCTTTCTGTTCAAGCGCCATCTAC,0.198
7,GATGATTGTTCTCCCAGCTGATGAATTGTAGCGCTCGAGTAAACAAATTTTCCTAATCTTTCTGTTCAAGCGCCATCTAC,0.704
8,GATGATTGTTCTCCCAGCTGATGAATTGTAGCTGTCGAGTAAACAAATTTTCCTAATCTTTCTGTTCAAGCGCCATCTAC,0.668
9,GATGATTGTTCTCCCAGCTGATGAATTTGGAGACTCGAGTAAACAAATTTTCCTAATCTTTCTGTTCAAGCGCCATCTAC,0.511
10,GATGATTGTTCTCCCAGCTGATGAATTTGAATCCTCGAGTAAACAAATTTTCCTAATCTTTCTGTTCAAGCGCCATCTAC,0.709
11,GATGATTGTTCTCCCAGCTGATGAATTGATGCTATCGAGTAAACAAATTTTCCTAATCTTTCTGTTCAAGCGCCATCTAC,2.82
12,GATGATTGTTCTCCCAGCTGATGAATTCCAACACTCGAGTAAACAAATTTTCCTAATCTTTCTGTTCAAGCGCCATCTAC,0.63
13,GATGATTGTTCTCCCAGCTGATGAATTTGGCAGGTCGAGTAAACAAATTTTCCTAATCTTTCTGTTCAAGCGCCATCTAC,0.637
14,GATGATTGTTCTCCCAGCTGATGAATTGGGATTATCGAGTAAACAAATTTTCCTAATCTTTCTGTTCAAGCGCCATCTAC,0.712
15,GATGATTGTTCTCCCAGCTGATGAATTAGTTTAATCGAGTAAACAAATTTTCCTAATCTTTCTGTTCAAGCGCCATCTAC,1.12
16,GATGATTGTTCTCCCAGCTGATGAATTGAACTTTTCGAGTAAACAAATTTTCCTAATCTTTCTGTTCAAGCGCCATCTAC,0.276
17,GATGATTGTTCTCCCAGCTGATGAATTTGAATAATCGAGTAAACAAATTTTCCTAATCTTTCTGTTCAAGCGCCATCTAC,0.371
18,GATGATTGTTCTCCCAGCTGATGAATTTTGACTTTCGAGTAAACAAATTTTCCTAATCTTTCTGTTCAAGCGCCATCTAC,1.32
19,GATGATTGTTCTCCCAGCTGATGAATTAGAGGTGTCGAGTAAACAAATTTTCCTAATCTTTCTGTTCAAGCGCCATCTAC,0.737
20,GATGATTGTTCTCCCAGCTGATGAATTTGATCACTCGAGTAAACAAATTTTCCTAATCTTTCTGTTCAAGCGCCATCTAC,0.63
21,GATGATTGTTCTCCCAGCTGATGAATTCCACATTTCGAGTAAACAAATTTTCCTAATCTTTCTGTTCAAGCGCCATCTAC,0.457

row,Sequence,binding signal (RPM ratio (pull-down/input))
1,GATGATTGTTCTCCCAGCTGATGAATTTCAACCCTCGAGTAAACAAATTTTCCTAATCTTTCTGTTCAAGCGCCATCTAC,0.257
2,GATGATTGTTCTCCCAGCTGATGAATTCACTTACTCGAGTAAACAAATTTTCCTAATCTTTCTGTTCAAGCGCCATCTAC,0.655
3,GATGATTGTTCTCCCAGCTGATGAATTCGGACCGTCGAGTAAACAAATTTTCCTAATCTTTCTGTTCAAGCGCCATCTAC,0.325
4,GATGATTGTTCTCCCAGCTGATGAATTCGACGGGTCGAGTAAACAAATTTTCCTAATCTTTCTGTTCAAGCGCCATCTAC,0.295
5,GATGATTGTTCTCCCAGCTGATGAATTATCTTCGTCGAGTAAACAAATTTTCCTAATCTTTCTGTTCAAGCGCCATCTAC,0.248
6,GATGATTGTTCTCCCAGCTGATGAATTCGAGACATCGAGTAAACAAATTTTCCTAATCTTTCTGTTCAAGCGCCATCTAC,0.446
7,GATGATTGTTCTCCCAGCTGATGAATTTTTGGCGTCGAGTAAACAAATTTTCCTAATCTTTCTGTTCAAGCGCCATCTAC,0.466
8,GATGATTGTTCTCCCAGCTGATGAATTACCTTTCTCGAGTAAACAAATTTTCCTAATCTTTCTGTTCAAGCGCCATCTAC,0.352
9,GATGATTGTTCTCCCAGCTGATGAATTTCACTAATCGAGTAAACAAATTTTCCTAATCTTTCTGTTCAAGCGCCATCTAC,0.217
10,GATGATTGTTCTCCCAGCTGATGAATTCATGATGTCGAGTAAACAAATTTTCCTAATCTTTCTGTTCAAGCGCCATCTAC,0.987
11,GATGATTGTTCTCCCAGCTGATGAATTCTGGGTCTCGAGTAAACAAATTTTCCTAATCTTTCTGTTCAAGCGCCATCTAC,0.598
12,GATGATTGTTCTCCCAGCTGATGAATTCCAAAGGTCGAGTAAACAAATTTTCCTAATCTTTCTGTTCAAGCGCCATCTAC,0.173
13,GATGATTGTTCTCCCAGCTGATGAATTCATATCATCGAGTAAACAAATTTTCCTAATCTTTCTGTTCAAGCGCCATCTAC,1.01
14,GATGATTGTTCTCCCAGCTGATGAATTCAGGAACTCGAGTAAACAAATTTTCCTAATCTTTCTGTTCAAGCGCCATCTAC,0.189
15,GATGATTGTTCTCCCAGCTGATGAATTATAGTGCTCGAGTAAACAAATTTTCCTAATCTTTCTGTTCAAGCGCCATCTAC,0.59
16,GATGATTGTTCTCCCAGCTGATGAATTTGAGTAGTCGAGTAAACAAATTTTCCTAATCTTTCTGTTCAAGCGCCATCTAC,0.778
17,GATGATTGTTCTCCCAGCTGATGAATTTTGTCCGTCGAGTAAACAAATTTTCCTAATCTTTCTGTTCAAGCGCCATCTAC,0.813
18,GATGATTGTTCTCCCAGCTGATGAATTTTTAGTTTCGAGTAAACAAATTTTCCTAATCTTTCTGTTCAAGCGCCATCTAC,0.363
19,GATGATTGTTCTCCCAGCTGATGAATTCGACCTCTCGAGTAAACAAATTTTCCTAATCTTTCTGTTCAAGCGCCATCTAC,0.347
20,GATGATTGTTCTCCCAGCTGATGAATTAGAACCGTCGAGTAAACAAATTTTCCTAATCTTTCTGTTCAAGCGCCATCTAC,0.261
21,GATGATTGTTCTCCCAGCTGATGAATTTTCTACCTCGAGTAAACAAATTTTCCTAATCTTTCTGTTCAAGCGCCATCTAC,0.223
